Measured values from article PMC3305431.
These are yes or no findings as the source states them, for the method shown. Some results given as binding are weak or reduced against the parent protein; the word gives no strength.

By UniProt entry, the sequences of proteins in these tests, tags left out. Where a name states a change or a piece, a line headed by the entry shows the natural chain unless it says otherwise.
UniProt Q7XBQ9: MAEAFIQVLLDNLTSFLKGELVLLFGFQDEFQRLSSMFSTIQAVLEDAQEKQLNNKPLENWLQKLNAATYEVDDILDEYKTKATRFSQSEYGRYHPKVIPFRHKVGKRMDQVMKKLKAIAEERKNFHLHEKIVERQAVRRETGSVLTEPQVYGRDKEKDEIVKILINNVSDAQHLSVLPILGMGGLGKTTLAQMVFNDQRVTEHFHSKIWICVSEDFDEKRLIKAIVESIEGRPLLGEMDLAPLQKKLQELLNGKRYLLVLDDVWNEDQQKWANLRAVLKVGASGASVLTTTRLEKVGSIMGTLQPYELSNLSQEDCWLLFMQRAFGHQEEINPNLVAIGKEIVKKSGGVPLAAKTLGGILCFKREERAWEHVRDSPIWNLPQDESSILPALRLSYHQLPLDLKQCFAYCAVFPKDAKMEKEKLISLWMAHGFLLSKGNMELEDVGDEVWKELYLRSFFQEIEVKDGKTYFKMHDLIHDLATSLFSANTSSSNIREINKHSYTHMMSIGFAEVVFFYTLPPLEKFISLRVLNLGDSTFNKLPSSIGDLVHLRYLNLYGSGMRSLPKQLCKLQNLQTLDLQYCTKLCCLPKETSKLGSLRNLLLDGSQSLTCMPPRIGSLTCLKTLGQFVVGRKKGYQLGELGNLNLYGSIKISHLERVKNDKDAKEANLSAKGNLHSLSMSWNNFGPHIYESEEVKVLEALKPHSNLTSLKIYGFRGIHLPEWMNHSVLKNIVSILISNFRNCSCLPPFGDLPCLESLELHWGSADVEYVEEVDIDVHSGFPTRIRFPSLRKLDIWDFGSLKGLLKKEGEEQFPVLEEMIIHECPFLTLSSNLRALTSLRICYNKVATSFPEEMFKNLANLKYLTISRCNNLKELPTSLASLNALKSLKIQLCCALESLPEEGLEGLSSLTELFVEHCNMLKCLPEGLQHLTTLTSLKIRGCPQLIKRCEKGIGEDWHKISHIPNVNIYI

What was measured:
Experiment in all cases: two-hybrid
[1] = molecular target: CC domain of RB (aa 1-165) (Solanum bulbocastanum) (UniProt Q7XBQ9)
[2] = molecular target: LRR domain of RB (aa 522-970) (Solanum bulbocastanum) (UniProt Q7XBQ9)
[3] = molecular target: CC-NB domain of RB (aa 1-521) (Solanum bulbocastanum) (UniProt Q7XBQ9)
[4] = molecular target: NB domain of RB (aa 166-521) (Solanum bulbocastanum) (UniProt Q7XBQ9)

Row | Substance | binding [1] | binding [2] | binding [3] | binding [4]
1 | CC-NB domain of RB (aa 1-521) (from UniProt Q7XBQ9 1-521) (domain or fragment) | no binding | no binding | no binding | no binding
2 | CC domain of RB (aa 1-165) (from UniProt Q7XBQ9 1-165) (domain or fragment) | binds | – | – | –
3 | NB domain of RB (aa 166-521) (from UniProt Q7XBQ9 166-521) (domain or fragment) | no binding | – | – | no binding
4 | LRR domain of RB (aa 522-970) (from UniProt Q7XBQ9 522-970) (domain or fragment) | no binding | no binding | – | no binding
